Among all 45,000 compounds or so, about 65 (0.1%) were called active. Calls follow the shape of the dose curve; as a rule, active = well fitted activation curve with a large enough effect; inconclusive = small, poorly fitted or top-dose-only effect; inactive = no such curve, though single readings can be large or run the other way. This is one part of the list.
The compounds below were run against Galactocerebrosidase (Homo sapiens) (UniProt P54803) (assay: A Novel Cell-Based Assay to Identify Small Molecules for B -Galactocerebrosidase). Details: 145M-Twi-hGALC-G270D cells (Twitcher mouse brain line with human GALC G270D), HMU-beta-Gal fluorescence, 48 h; series mostly up to 57.5 µM; activation: at the top concentration.
UniProt P54803, sequence (P54803 whole entry, looked up): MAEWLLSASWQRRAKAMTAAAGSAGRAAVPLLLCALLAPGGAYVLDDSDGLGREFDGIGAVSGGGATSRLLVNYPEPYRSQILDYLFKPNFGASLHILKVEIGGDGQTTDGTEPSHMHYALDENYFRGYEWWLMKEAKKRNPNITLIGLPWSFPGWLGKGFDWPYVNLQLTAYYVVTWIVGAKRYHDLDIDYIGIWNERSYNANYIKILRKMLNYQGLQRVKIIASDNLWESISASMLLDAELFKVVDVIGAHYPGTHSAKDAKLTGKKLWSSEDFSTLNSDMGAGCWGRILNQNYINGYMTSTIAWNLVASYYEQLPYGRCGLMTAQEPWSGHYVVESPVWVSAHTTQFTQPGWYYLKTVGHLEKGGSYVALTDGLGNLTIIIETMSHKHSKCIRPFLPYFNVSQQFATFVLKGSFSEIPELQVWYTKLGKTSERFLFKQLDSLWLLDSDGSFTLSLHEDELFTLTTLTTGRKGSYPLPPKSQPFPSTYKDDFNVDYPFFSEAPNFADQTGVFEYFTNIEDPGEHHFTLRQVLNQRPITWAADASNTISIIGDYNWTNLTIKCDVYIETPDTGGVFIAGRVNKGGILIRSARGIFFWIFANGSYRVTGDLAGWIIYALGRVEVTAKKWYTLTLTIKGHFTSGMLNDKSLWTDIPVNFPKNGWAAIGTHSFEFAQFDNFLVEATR
Outline: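 Fluorescence readout: HMU-β-gal cleavage by mutant GALC (0.1 mM final, citrate/phosphate pH 5.2 with 1 mg/mL taurocholate), stopped with carbonate/bicarbonate plus Triton X-100. Cells: murine Twitcher 145M-Twi expressing human G270D GALC; qHTS for activators.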
Also: 0% is about no effect; nearly all actives have a fitted effect of over 65% in size.

activation, inactive:
CCOc1ccc(-c2csc(-c3nc(-c4ccc(Br)s4)cs3)n2)cc1 -14.8%
COc1cccc(C(c2c(O)cc(C)n(Cc3ccco3)c2=O)N2CCC(C)CC2)c1 (stereo unspecified) -11%
CNCC(O)c1ccc(O)c(O)c1 (stereo unspecified) 23.9%
Cc1cccc(CS(=O)(=O)Cc2ccc(C(=O)NC(C)c3ccccc3)o2)c1 (stereo unspecified) 2.74%
Cc1ccc2c(c1)-c1c(c(C(=O)NCCc3ccccc3)nn1C)CS2 -38.3%
COc1cccc(CNC(=O)Cn2c(SCC(=O)Nc3ccc(F)cc3)nc3ccccc32)c1 -16.3%
CCCCN(CC)CCCNC(=O)C1CCN(c2nc3ccc(CC)cc3s2)CC1 -24.5%
CCCN(C(=O)Cc1c(C(=O)O)[nH]c2ccc(Cl)cc12)c1ccc(OCC)cc1 -13.5%
CC(C)CCNC(=O)c1cccc(-n2cnc3cccnc32)c1 9.34%
Cc1ccc(C(=O)COC(=O)c2cccc(NC(=O)c3ccc(Br)cc3)c2)cc1 -10.9%
Cc1ccc(C)c(N2CCN(S(=O)(=O)c3ccc4c(c3)CC(=O)N4C)CC2)c1 -10.7%
Cc1cccc(N(CC(=O)Nc2cccc(Cl)c2C)S(C)(=O)=O)c1C -36.8%
Cc1ccc(S(=O)(=O)NCC(c2ccco2)N2CCN(c3ccccc3F)CC2)cc1 (stereo unspecified) -14.8%
COc1ccc(CCC(=O)NCc2nc3cccnc3n2Cc2ccc(C)cc2)cc1 -8.72%
CCOCCCNC(=O)c1[nH]c2cc(OC)ccc2c1Sc1ccccc1 -28.2%
CCCCCNS(=O)(=O)c1ccc(N2CCCCS2(=O)=O)cc1 5.6%
COc1ccc(NC(=O)Cn2c(=O)n(CCC(=O)NCCc3ccc(OC)c(OC)c3)c(=O)c3ccccc32)cc1Cl -7.83%
CCCN1C(=O)CN(C2CCCCC2)C(=O)C1c1ccc(OC)c(OC)c1 (stereo unspecified) 4.27%
COC(=O)c1c(NC(=O)c2nc(SCc3ccc(C)cc3)ncc2Cl)sc2c1CCCC2 2.97%
Cc1cccc(-n2ncc(C(=O)N3CCN(C(=O)c4ccco4)CC3)c2C2CCN(C(=O)OC(C)(C)C)CC2)c1 -6.33%
COc1cccc([C@@H]2Nc3ccc(C(=O)O)cc3[C@@H]3C=CC[C@@H]32)c1OC -12.8%
Cc1ccc2c(=O)cc(C(=O)Nc3ccc(S(=O)(=O)Nc4onc(C)c4C)cc3)oc2c1 -11.1%
O=C(NC1CC1)c1ccc(Cn2c(SCc3ccccc3F)nc3cccnc32)cc1 -24.8%
Cc1nn(CCC(=O)NCc2ccc(N(C)C)cc2)c(=O)c2nn(-c3ccccc3)c(C)c12 1.74%
COc1cccc(NC(=O)Cn2nc3c4ccccc4n(Cc4cccc(F)c4)cc-3c2=O)c1 1.52%
Cc1ccc(N2CC(NC(=O)c3ccc(Br)o3)CC2=O)cc1C (stereo unspecified) -7.85%
CC(NC(=O)C(=O)Nc1c2c(nn1-c1ccccc1)CSC2)c1ccccc1 (stereo unspecified) -6.41%
Cc1ccc2c(c1)c(=O)c(C(=O)c1ccncc1)cn2CC(=O)Nc1ccc(C(C)C)cc1 -17.9%
COc1ccc2nc3oc(C(=O)N(C)c4ccc(Cl)cc4)cc3cc2c1 -17.8%
CCc1nnc(NC(=O)CSc2nccn2Cc2ccc(F)cc2)s1 6.5%
COc1ccc(N2CCN(CC(O)COc3ccc(C(C)C)c(C)c3)CC2)cc1 (stereo unspecified) -24.1%
CCOc1ccc(NCc2cccn2-c2nnc(N3CCC(C(=O)NCc4ccc(C)cc4)CC3)s2)cc1 1.91%
CC(C)(C)c1ccc(C(=O)Nc2ccc(-c3nc4cc(Cl)ccc4o3)cc2)cc1 -16.8%
Cc1nnc(N2CCN(c3ccccc3F)CC2)c2c1nnn2Cc1ccccc1Cl -8.07%
COc1ccc(CNc2oc(COc3cccc(C)c3)nc2C#N)cc1 -12.7%
O=C(Nc1ccc(NC(=O)c2ccc(Br)cc2)c(Cl)c1)c1ccc(Br)cc1 -9.59%
COc1ccccc1-c1nnc(C2CCN(S(=O)(=O)c3ccccc3)CC2)o1 -8.83%
Cn1cc(S(=O)(=O)N2CCCC2)cc1C(=O)Nc1ccc(C(F)(F)F)cc1 -5.12%
COc1ccc(C(=O)Nc2nc3ccc(S(=O)(=O)N4CCCC4)cc3s2)cc1 -17.1%
COc1cccc(N2CCN(C(=O)Cn3cnc4onc(-c5ccc(F)cc5)c4c3=O)CC2)c1 -19.5%
CCCCCn1c(=O)[nH]c2cc(C(=O)Nc3ccc(OC)c(OC)c3)ccc2c1=O -25.7%
COc1cccc(-c2nc(CS(=O)(=O)CC(=O)NCCCN3CCN(C)CC3)c(C)o2)c1 -16.1%
COc1cccc2cc(-c3nnc(-c4ccc(Cl)cc4)o3)c(=O)oc12 10.2%
CCc1nn(CC(=O)N2CCN(c3cccc(C(F)(F)F)c3)CC2)c(=O)c2cc3occc3n12 -9.81%
Cc1cccc(Cn2c(SCc3ccc(C(=O)NCCc4ccccc4)cc3)nc3cccnc32)c1 -11.3%
CC(=O)Nc1ccc(S(=O)(=O)N2CCN(c3ccccc3)CC2)cc1 -33.6%
COc1ccc(C)cc1NC(=O)C1CCCN(S(=O)(=O)c2ccc3c(c2)oc(=O)n3C)C1 (stereo unspecified) -11.1%
CCOC(=O)CC(=O)CSc1nc2ccccc2c(=O)n1CCc1ccccc1 -8.65%
COc1cccc(-c2nnc3n(CCc4ccccc4)c(=O)c4ccccc4n23)c1O -21.6%
Cn1c(=O)c(=O)n(C)c2cc(N3CCCC3)c(NC(=O)c3ccc(C(C)(C)C)cc3)cc21 -14.5%
COc1cccc(CNC(=O)CN(c2ccc(C(C)C)cc2)S(=O)(=O)c2c(C)n[nH]c2C)c1 -10.6%
CC(=O)Nc1cccc(NC(=O)C2(c3cccs3)CCOCC2)c1 -13%
Cc1ccc(SCc2nc(-c3ccc(C(=O)NCc4ccccc4Cl)cc3)oc2C)cc1 -7.58%
CCOC(=O)C1=C(c2ccccc2)Nc2ncnn2C1c1ccc(Cl)cc1 (stereo unspecified) -12.1%
O=C(CCC1N=C2c3ccccc3N=C(SCC(=O)Nc3ccccc3F)N2C1=O)NCc1cccs1 (stereo unspecified) -17%
COc1ccc(S(=O)(=O)N(CCc2ccccc2)CC(=O)Nc2cc(C)ccc2C)cc1 -11.9%
Cc1cccc(NC(=O)CSc2cn(CC(=O)N3CCOCC3)c3ccccc23)c1 -12.1%
CCn1cc(C(=O)NCCOC)c(=O)c2cc(S(=O)(=O)N3CCOCC3)ccc21 -14.2%
CCc1ccc(NC(=O)C2CCN(S(=O)(=O)c3c(C)noc3/C=C/c3cccs3)CC2)cc1 -8.26%
CCOC(=O)c1cccc(NS(=O)(=O)c2c(C)nc3sc(C)cn3c2=O)c1 -5.28%
O=C(c1ccc2c(c1)N(Cc1cccc(Cl)c1)C(=O)c1ccccc1S2(=O)=O)N1CCC(Cc2ccccc2)CC1 0.0209%

From PubChem BioAssay AID1159614 (National Center for Advancing Translational Sciences (NCATS), 2016)
